# The other results are listed elsewhere or left out. The main result of the screen is listed elsewhere. These columns were measured beside it and carry no call.
# Legend:
# Assay in all cases: Primary Screen for Target Class Profiling of Small Molecule Inhibitors of Methyltransferases
# [1] = biological target: Glycine N-methyltransferase (Homo sapiens) (UniProt Q14749); conditions: purified enzyme, MTase-Glo SAH luminescence; measured here: GNMT inhibition; at 40 µM; stronger effect = lower value
# Excerpt: (§1) PI: Matthew D. Hall Ph.D. and Quinlin M. Hanson Ph.D.
# (§2) National Center for Advancing Translational Sciences (NCATS)
# (§3) National Institute of Health (NIH), Rockville, MD
# (§4) Target class profiling (TCP) is a chemical biology approach amenable to investigating understudied biological targets. TCP is achieved by developing a generalizable assay platform and applying it to screen a curated set of compound libraries against representative members of a target class. Small molecule methyltransferases (SMMTase) are a subclass of methyltransferase that act on metabolites to modulate signaling pathways, metabolize xenobiotics, or balance the available methyl pool. We screened four curated libraries totaling 27,574 unique compounds against the SMMTases nicotinamide N-methyltransferase (NNMT), phenylethanolamine N-methyltransferase (PNMT), histamine N-methyltransferase (HNMT), glycine N-methyltransferase (GNMT), catechol O-methyltransferase (COMT), and guanidinoacetate N-methyltransferase (GAMT). The data generated by this TCP can be leveraged for informed tool molecule development. For example, in the associated publication we identified a chemotype of HNMT-selective inhibitors. Additionally, we identified a putative SMMTase-selective inhibitor with potential as a tool molecule for studying broader methyltransferase biology.
# (§5) High-through put screening assays were developed at the National Center for Advancing Translational Science (NCATS) for the enzymes NNMT, PNMT, HNMT, GNMT, COMT, and GAMT. Enzymatic activity was measured as a function of SAM cofactor conversion using the MTase Glo kit (Promega) for all enzymes. All assays were performed in 1536-well format with substrates and SAM concentrations at KM values. Enzyme concentration and assay timing were optimized for 10-20% SAM conversion. Initial screening of 27,574 compounds was done as single-point assays using the highest compound concentration (40 uM). […] These compounds were replated in 11-point dose response and assayed against NNMT, PNMT, HNMT, GNMT, COMT, GAMT, and a counter-assay. The IC50 and efficacy (maximal response) values were determined for each dose-response curve. These values are also accounted for in the area under the curve (AUC) values.
# (§6) PROTOCOL TABLE (as described by Inglese J, Shamu CE and Guy RK. 2007)
# (§7) SEQUENCE No. (e.g., 1, 2, 3, etc.); […] (e.g., Cells, Incubation, Reagent, etc.); VALUE; DESCRIPTION.
# (§8) 1; Reagent; 2 uL; SMMTase Enzyme (2x) in reaction buffer, columns 1- 48.
# (§9) 2; Reagent; 1 uL; SAM (4x) in reaction buffer, columns 1-48.
# (§10) 3; Controls; 23 nL; DMSO in column 4; sinefungin in DMSO (0 uM - 40 uM) in 7-point 1:2 dilution series (n = 2) in column 2.
# (§11) 4; Compounds; 23 nL; Columns 5-48.
# (§12) 5; Reagent; 1 uL; Substrate (4x) in reaction buffer, columns 2-48.
# (§13) 6; Time; 20-30 min; Incubation.
# (§14) 7; Reagent; 1 uL; MTase-Glo reagent (5X), columns 1-48.
# (§15) 8; Time; 30 min; Incubation.
# (§16) 9; Reagent; 5 uL; MTase-Glo Detection reagent, columns 1-48.
# (§17) 10; Time; 30 min; Incubation, luminescence evolution.
# (§18) 11; Detection; Luminescence; ViewLux uHTS Microplate Imager (PerkinElmer).
# (§19) NOTES (numbers refer to Sequence numbers above)
# (§20) 1, 2, 5. White Medium Binding Greiner 1536-well plates (Cat #789175-F, Greiner Bio-One, Monroe, NC); Reaction buffer: 50 mM Tris, pH 8.0, 3 mM MgCl2, 1 mM EDTA, 50 mM NaCl, 1 mM DTT, and 0.1 mg/mL BSA. Evaporation was prevented by covering assay plates with metal lids containing holes to allow gas diffusion.
# (§21) 1. Six SMMTase were profiled: HNMT, GNMT, PNMT, COMT, NNMT, GAMT
# (§22) 5. The corresponding substrate was used for each enzyme: HNMT - 5.3 uM Histamine; GNMT - >500 uM Glycine; PNMT - 16.2 uM Norephinephrine; COMT - 13.7 uM Norephinephrine; NNMT - 3.8 uM Nicotinamide; GAMT - 2.5 uM Guanidinoacetate.6, 8, 10. Room temperature
# (§23) 6. Final reaction conditions: 10 nM COMT, 5 uM SAM, 15 uM norepinephrine, 50 mM Tris, pH 8.0, 3 mM MgCl2, 1 mM EDTA, 50 mM NaCl, 1 mM DTT, and 0.1 mg/mL BSA; refer to tables 2 and S1 for specific timing.
# 8. […]
# [2] = biological target: Guanidinoacetate N-methyltransferase (Homo sapiens) (UniProt Q14353); conditions: purified enzyme, MTase-Glo SAH luminescence; measured here: GAMT inhibition; at 40 µM; stronger effect = lower value
# Excerpt: as §1, §2, §3, §4, §5, §6, §7, §8, §9, §10, §11, §12, §13, §14, §15, §16, §17, §18, §19, §20, §21, §22, §23
# 8. […]
# [3] = biological target: Histamine N-methyltransferase (Homo sapiens) (UniProt P50135); conditions: purified enzyme, MTase-Glo SAH luminescence; measured here: HNMT inhibition; at 40 µM; stronger effect = lower value
# Excerpt: as §1, §2, §3, §4, §5, §6, §7, §8, §9, §10, §11, §12, §13, §14, §15, §16, §17, §18, §19, §20, §21, §22, §23
# 8. […]
# [4] = biological target: Nicotinamide N-methyltransferase (Homo sapiens) (UniProt P40261); conditions: purified enzyme, MTase-Glo SAH luminescence; measured here: NNMT inhibition; at 40 µM; stronger effect = lower value
# Excerpt: as §1, §2, §3, §4, §5, §6, §7, §8, §9, §10, §11, §12, §13, §14, §15, §16, §17, §18, §19, §20, §21, §22, §23
# 8. […]
# [5] = biological target: Phenylethanolamine N-methyltransferase (Homo sapiens) (UniProt P11086); conditions: purified enzyme, MTase-Glo SAH luminescence; measured here: PNMT inhibition; at 40 µM; stronger effect = lower value
# Excerpt: as §1, §2, §3, §4, §5, §6, §7, §8, §9, §10, §11, §12, §13, §14, §15, §16, §17, §18, §19, §20, §21, §22, §23
# 8. […]
# % is set by controls: 0 for no effect and ±100 for the full control effect.
Compound,"activity change, negative = inhibition [1]","activity change, negative = inhibition [2]","activity change, negative = inhibition [3]","activity change, negative = inhibition [4]","activity change, negative = inhibition [5]"
COc1cc(O)c2c(c1)/C=C/C[C@@H](O)[C@@H](O)C(=O)CCC[C@H](C)OC2=O,-22.5%,-9.05%,-37.2%,-19.4%,-15.9%
CC(C)CCNC(=O)N1Cc2ccccc2-n2cccc2C1c1ccc(F)cc1 (stereo not drawn),-3.51%,1.11%,-5.9%,-9.94%,-0.979%
COCC1CN(C)CC12CCN(Cc1cccnc1)CC2 (stereo not drawn),-0.285%,2.48%,-1.01%,-3.31%,-14.1%
CC(C)CCNC(=O)N1Cc2ccccc2-n2cccc2C1c1ccccc1 (stereo not drawn),6.75%,0.158%,3.32%,2.32%,6.58%
C=C1[C@@H](O)[C@]2(O)OC[C@]34C2[C@]2(C)C(C[C@H]3OC(=O)[C@H](O)[C@@]14O)C(C)=CC(=O)[C@H]2O (stereo partly drawn),-0.941%,-9.58%,-3.9%,-19.7%,-1.26%
C/C=C(/C)C(=O)O[C@H]1C(C)=C2[C@H]([C@@H]1OC(=O)CCCCCCC)[C@@](C)(OC(C)=O)C[C@H](OC(=O)CCC)[C@@]1(O)[C@H]2OC(=O)[C@@]1(C)O,0.853%,1.19%,3.11%,-17.6%,-2.6%
CCOCCCNC(=O)N1Cc2ccccc2-n2cccc2C1c1cc(F)cc(F)c1 (stereo not drawn),14.1%,2.63%,9.8%,4.15%,8.84%
Cc1ccc(NC(=O)N2Cc3ccccc3-n3cccc3C2c2ccccc2C)cc1Cl (stereo not drawn),5.7%,0.063%,1.86%,3.81%,-0.001%
CCN1CCCN(C(=O)c2cccnc2)CC12CCOCC2,0.371%,-2.8%,1.83%,-6.37%,12.1%
CCC1c2cccn2-c2ccccc2CN1C(=O)Nc1cc(C)ccc1C (stereo not drawn),4.16%,2.19%,7.23%,6.4%,-0.109%
CC(=O)OC12C(O)C(C)C3(O)C4C=C(C)C(=O)C4CC(CO)=CC3C1C2(C)C (stereo not drawn),0.691%,1.24%,10.1%,-11.7%,-5.44%
Cc1ccc(NC(=O)N2Cc3ccccc3-n3cccc3C2c2ccc(N(C)C)cc2)cc1F (stereo not drawn),9.79%,0%,-5.23%,5.66%,7.5%
c1ccc([C@@H]2C[C@H]2NC2CCNCC2)cc1,-7.86%,-15.8%,-6.98%,-17.6%,-20.5%
CCCCCC[C@H]1C(=O)O[C@H](C)[C@H](NC(=O)c2cccc(NC=O)c2O)C(=O)O[C@@H](C)[C@@H]1OC(=O)CC(C)C,,0.319%,,-37.7%,-18.7%
CCCC[N+]1(C)C2CC(OC(=O)[C@H](CO)c3ccccc3)CC1C1OC12 (stereo partly drawn),-4.25%,1.09%,-0.777%,-5.74%,2.81%
CC(C)C1c2cccn2-c2ccccc2CN1C(=O)Nc1ccccc1 (stereo not drawn),-3.35%,0%,10.2%,10%,6.31%

# — PubChem BioAssay AID1745853 (National Center for Advancing Translational Sciences (NCATS), 2022)
